From PubChem BioAssay AID485364 (National Center for Advancing Translational Sciences (NCATS), 2010)
Among all 360,000 compounds or so, about 11,000 (3.1%) were called active. Inconclusive means that the source gave no clear call. Such entries were picked first, then a sample of the others. Calls follow the shape of the dose curve; as a rule, active = well fitted inhibition curve with a large enough effect; inconclusive = small, poorly fitted or top-dose-only effect; inactive = no such curve, though single readings can be large or run the other way. No potency is given beside an inconclusive call; the fits are too rough.

target: Schistosoma mansoni thioredoxin glutathione reductase (TGR) (UniProt Q962Y6); assay: qHTS Assay for the Inhibitors of Schistosoma Mansoni Peroxiredoxins; conditions: purified TGR, DTNB reduction, TNB absorbance 405 nm; activity change, negative = inhibition: at 114 µM (top of the series) unless noted; also: nearly all actives have a fitted effect of over 60% in size
Procedure, shortened: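 TGR 20 nM + NADPH 100 uM (dispensed conc.), cpd preinc 15 min RT; start with NADPH (500 uM addition) then DTNB (15 mM addition). Kinetic TNB absorbance, 405 nm filter. Four-parameter Hill fit across titration.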
% is scaled to controls: 0 for no effect and ±100 for the full control effect; potency is read from the fitted curve at half-maximal effect; tags tell the direction and shape of the fitted curve.

Row | SMILES | activity change, negative = inhibition | Potency
1 | O=C(/C=C/c1ccc(Cl)c(Cl)c1)N1CCOCC1 | inactive: 0% | –
2 | Fc1cccc(CCN2CCNC[C@H]2Cc2cccc3ccccc23)c1 | – | inconclusive [inhibitor, partial curve]
3 | O=c1cc(N=Nc2ccc(Cl)cc2)[nH]c(=O)[nH]1 | – | inconclusive [inhibitor, full curve, poor fit]
4 | N#CC1=C(SCc2ccccc2)NC2=C(C(=O)CCC2)C1c1ccc2c(c1)OCO2 (stereo not given) | – | inconclusive [inhibitor, partial curve]
5 | Oc1ccc(N2CCN(Cc3nc4ccccc4[nH]3)CC2)cc1 | – | inconclusive [inhibitor, partial curve, poor fit]
6 | O=C1CCCc2c1nn(-c1ccccc1)[n+]2[O-] | – | inconclusive [inhibitor, partial curve]
7 | CC1=NN(C(N)=S)C(=O)C1N=Nc1cccc(Cl)c1 (stereo not given) | – | inconclusive [inhibitor, full curve]
8 | O=C(O)C1C2C=CC(O2)C1C(=O)NCc1ccccc1Br (stereo not given) | – | inconclusive [inhibitor, partial curve, poor fit]
9 | Cc1cc(S(=O)(=O)NC2CCCCC2)ccc1OCC(=O)NCc1ccccn1 | inactive: -8.8% | –
10 | O=c1[nH]c(O)c(/C=C2\C=Nc3ccc(OCc4ccccc4)cc32)c(=O)[nH]1 | – | inconclusive [inhibitor, full curve]
11 | Cc1ccc(S(=O)(=O)n2nc(OC(=O)c3ccccc3F)cc2N)cc1 | – | active: 15.8 µM
12 | CCOc1ccc(C(=O)NC(=S)NC2CCCC2)cc1[N+](=O)[O-] | – | inconclusive [inhibitor, partial curve]
13 | CN(CC(=O)Nc1cccc(F)c1)S(=O)(=O)c1ccc2c(c1)n(C)c(=O)c(=O)n2C | inactive: -1.69% | –
14 | COc1ccc(OC)c(/C=C/c2[nH]c(=O)[nH]c(=O)c2[N+](=O)[O-])c1 | – | inconclusive [inhibitor, partial curve]
15 | COc1cccc(NC(=S)Nc2ccc(O)cc2)c1 | – | inconclusive [inhibitor, partial curve]
16 | CC(C)NCc1c(O)c(Br)cc2oc3c(c12)CCCC3 | – | inconclusive [inhibitor, partial curve]
17 | CC(OC(=O)/C=C/c1cccc(Cl)c1)C(=O)NC1CCCCC1C (stereo not given) | – | inconclusive [inhibitor, partial curve]
18 | COC(=O)c1ccsc1NC(=O)CCS(=O)(=O)c1ccccc1 | – | active: 10 µM
19 | CN1C(=O)NC(c2ccc(C(F)(F)F)cc2)C2=C1CC(C)(C)CC2=O (stereo not given) | – | inconclusive [inhibitor, partial curve]
20 | COc1ccc(Cc2n[nH]c(=S)n2C)cc1Br | – | active: 31.6 µM
21 | COc1ccc(Cn2ccc3nc(C)c(C(=O)NCc4ccc(SC)cc4)cc3c2=O)cc1 | inactive: 4.35% | –
22 | O=C(CSCC(=O)NC1CC1)Nc1ccccc1 | inactive: -4.83% | –
23 | CCC(=O)NC(Nc1nc(C)cs1)(C(=O)OC)C(F)(F)F (stereo not given) | – | inconclusive [inhibitor, full curve]

Row | SMILES | activity change, negative = inhibition | Potency
24 | CCOc1cc(C2CC(=O)NC3=C2C(=O)C(C(=O)OC)C(C)C3)cc(Br)c1O (stereo not given) | – | inconclusive [inhibitor, partial curve]
25 | O=C1CCCC2=C1C(c1cccc(O)c1)C1=C(N2)c2ccccc2C1=O (stereo not given) | – | inconclusive [inhibitor, partial curve]
26 | N#CC1=C(N)C2=C(N3CCCCC3)CCCC2C1(C#N)C#N (stereo not given) | – | inconclusive [inhibitor, partial curve]
27 | CC(C)N1CCN(Cc2ccc(-c3ccccc3Cl)o2)CC1CCO (stereo not given) | – | inconclusive [inhibitor, full curve]
28 | Cc1cc(=O)oc2cc(OCC(=O)NCCCN3CCCC3=O)c(Cl)cc12 | – | active: 79.4 µM
29 | Cc1cccc(C)c1NC1=NC(=S)N(c2ccccc2)C12CCOC(C)(C)C2 (stereo not given) | – | inconclusive [inhibitor, partial curve]
30 | CCc1ccc(CNC(=O)Cn2nc(C)c3nn(-c4ccc(Cl)cc4)c(C)c3c2=O)cc1 | inactive: 4.21% | –
31 | Oc1ccc(C(c2nnnn2C2CCCC2)N2CCc3ccccc3C2)cc1 (stereo not given) | – | active: 3.16 µM
32 | CCc1ccc(CN(C)Cc2nc(Cc3ccc(OC)c(OC)c3)no2)nc1 | – | active: 31.6 µM
33 | C#CCNC(=O)C1=C[C@@H](c2cn(C(C)=O)c3ccccc23)C[C@@H](OCCCCO)O1 | – | active: 39.8 µM
34 | COCCCn1c2nc3ccccc3nc2c2c(=O)n(-c3ccccc3OC)cnc21 | inactive: 3.19% | –
35 | Cc1cc(Cl)ccc1NC(=O)CCC(=O)N/N=C/c1cccnc1 | – | inconclusive [inhibitor, partial curve, poor fit]
36 | O=C(CSc1ccsc1[N+](=O)[O-])NCCc1ccccc1 | – | inconclusive [inhibitor, partial curve]
37 | CC(=O)NCCC(=O)Nc1cc(S(=O)(=O)N2CCCCC2)ccc1N1CCN(C)CC1 | – | inconclusive [inhibitor, partial curve]
38 | O=C(O)c1ccc(Cl)c(NC(=S)NC(=O)c2cccc(COc3ccccc3)c2)c1 | – | inconclusive [inhibitor, full curve]
39 | COc1ccc(NC2CCCN(C(=O)COc3ccc(Cl)cc3C)C2)cc1OC (stereo not given) | – | inconclusive [inhibitor, partial curve, poor fit]
40 | CCc1cccc(NC(=O)c2snc3c(=O)[nH]cnc23)c1 | inactive: -33.4% | –
41 | S=C(NCc1cccs1)Nc1ccc(Br)cc1Cl | inactive: -34.7% | –
42 | Cc1nc(S(=O)(=O)c2ccc(Cl)cc2)c(NCc2ccccc2)o1 | – | active: 39.8 µM
43 | CN(C)S(=O)(=O)c1ccc(/C(O)=C2/C(=O)C(=O)N(Cc3cccnc3)C2c2ccco2)cc1 (stereo not given) | – | inconclusive [inhibitor, single point]
44 | N#C/C(=C\c1cccc(NC(=O)c2ccccc2Cl)c1)C(=O)NCCc1ccccc1 | inactive: -0.0101% | –
45 | Cc1ccc(-c2noc(CCC(=O)NCc3ccco3)n2)cc1 | – | inconclusive [inhibitor, full curve]
